Laboratory results from the BET-seq Pho4 binding data (Le et al. 2018).
The other results are listed elsewhere or left out. Values were computed here from the reads of four pooled replicates and scatter widely.

Molecular target: T1, Pho4 (S. cerevisiae) (UniProt P07270)
T1 sequence: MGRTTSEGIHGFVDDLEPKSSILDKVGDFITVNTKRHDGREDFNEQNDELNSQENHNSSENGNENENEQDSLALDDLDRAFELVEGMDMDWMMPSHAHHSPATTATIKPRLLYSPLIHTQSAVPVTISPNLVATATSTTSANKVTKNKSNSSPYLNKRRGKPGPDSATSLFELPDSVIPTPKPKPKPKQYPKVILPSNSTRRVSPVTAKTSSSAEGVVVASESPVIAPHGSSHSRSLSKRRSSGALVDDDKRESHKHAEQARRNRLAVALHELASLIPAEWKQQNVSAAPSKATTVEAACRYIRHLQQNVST
Assay: relative binding free energy (BET-seq); higher = weaker binding
Conditions: reference: library average

Row | Sequence | relative binding free energy [kcal/mol]
1 | TTTATCACGTGATGTG | 0.18
2 | GAAGACACGTGGTGTA | -0.07
3 | AATGGCACGTGTATTG | -0.16
4 | TTAGGCACGTGGGTGA | -0.29
5 | TGCGGCACGTGGGAGT | -0.12
6 | ATACGCACGTGTGGAT | -0.04
7 | GCTTGCACGTGTTTAT | 0.1
8 | TATAGCACGTGTAATG | -0.04
9 | GGTTTCACGTGTGTTA | 0.4
10 | GTATTCACGTGAGTTT | 0.34
11 | GGTTCCACGTGGGTAA | 0.07
12 | ACGATCACGTGGGCGG | -0.01
13 | TTTGCCACGTGTCTGG | -0.09
14 | GGGGCCACGTGGTTTA | 0.01
15 | GGGGGCACGTGTAAAA | 0.12
16 | GTGTCCACGTGATGTT | 0.23
17 | GATGGCACGTGCTGGG | -0.04
18 | TTATGCACGTGGGTCG | -0.24
19 | TGGCTCACGTGGAATG | 0.35
20 | AGTTGCACGTGAGAGA | 0.23
21 | AGAGTCACGTGAAGGT | 0.29
22 | CTAGGCACGTGGGTGC | -0.25
23 | ACTGGCACGTGGGGGC | -0.18

Row | Sequence | relative binding free energy [kcal/mol]
24 | ATTTTCACGTGTGGCC | 0.32
25 | CGTTGCACGTGATGGA | 0.14
26 | GTGTTCACGTGGTCGC | 0.37
27 | CGTTTCACGTGGGTTG | 0.18
28 | AGTCTCACGTGGTGTT | 0.06
29 | TTTACCACGTGGGGGC | -0.17
30 | TGAGTCACGTGTCGGA | 0.11
31 | TTATTCACGTGTGGGA | 0.19
32 | ATAGGCACGTGTAGCT | -0.01
33 | CGATCCACGTGTGTGT | 0.08
34 | TGTTGCACGTGGGGCA | -0.17
35 | CATGTCACGTGTAGGA | 0.14
36 | ATGTACACGTGACTGT | 0.19
37 | CAAGGCACGTGTGGGT | 0.02
38 | AATTTCACGTGGGCGC | 0.31
39 | TTTGGCACGTGAACCG | 0.2
40 | GCAGTCACGTGGGAGT | -0.09
41 | GGTCACACGTGTGGGG | 0.13
42 | TGTGCCACGTGGGTAG | -0.25
43 | TTGCGCACGTGAGAGG | 0.23
44 | GATGGCACGTGAAAGG | 0.22
45 | GGGATCACGTGGGGTT | 0.1
46 | TGTTACACGTGCGAGT | 0.06

Row | Sequence | relative binding free energy [kcal/mol]
47 | CTTGTCACGTGTTGCG | 0.13
48 | TGAGACACGTGAATTT | 0.25
49 | TTTAGCACGTGATCGT | -0.07
50 | GGCGTCACGTGGATGT | 0.24
51 | TTTAACACGTGGGACT | -0.05
52 | CTTTGCACGTGTTTTG | 0.05
53 | CTTTGCACGTGTTAAT | -0.1
54 | TGATGCACGTGTATGG | 0.09
55 | CTTGGCACGTGTCGGG | -0.02
56 | GTCAGCACGTGTTGGG | 0.03
57 | ATATACACGTGAGGCG | 0.32
58 | TGTAACACGTGGGATT | -0.16
59 | GGTGCCACGTGCATGG | -0.06
60 | GTGGCCACGTGTTCAG | -0.02
61 | GGTCGCACGTGACGGG | 0
62 | TGGTGCACGTGGCCGG | -0.18
63 | TCTGGCACGTGGCTAT | -0.02
64 | CCGGTCACGTGGGAGG | -0.06
65 | GTTATCACGTGGATTA | 0.15
66 | GGGGGCACGTGTAGGT | -0.04
67 | CACGGCACGTGGGGGT | -0.18
68 | AGTCGCACGTGTCTGG | -0.14
69 | AAAGCCACGTGTGTTT | 0.09

Row | Sequence | relative binding free energy [kcal/mol]
70 | TTAGTCACGTGGTTAT | -0.01
71 | TACATCACGTGATTTG | 0.23
72 | TTCAGCACGTGTCTTG | -0.07
73 | CTGGGCACGTGAGTGA | -0.09
74 | TTATTCACGTGTGACG | 0.32
75 | CAATTCACGTGGGTGT | 0.11
76 | TGTGACACGTGATTAT | 0.1
77 | CGGAGCACGTGGCGGT | -0.1
78 | AAGATCACGTGAGTAT | 0.52
79 | TTGTGCACGTGTAAGG | 0.11
80 | CGGCGCACGTGTGCGT | -0.04
81 | TCGTCCACGTGGGGGA | -0.2
82 | GGCTGCACGTGGCGTT | -0.06
83 | GGATTCACGTGTGCAT | 0.28
84 | TTTAACACGTGGCATG | -0.2
85 | GTTGTCACGTGGGCTT | 0
86 | AGCCGCACGTGTGGGT | -0.08
87 | GCTGGCACGTGCGGTT | -0.01
88 | GCATGCACGTGGGGCT | -0.21
89 | GTGATCACGTGCGTAT | 0.07
90 | TGGCTCACGTGGAGTT | 0.31
91 | GATGTCACGTGTTCAT | 0.1
92 | GTGGGCACGTGTGGGC | 0.1

Row | Sequence | relative binding free energy [kcal/mol]
93 | ATCAACACGTGGGGTT | -0.15
94 | TGGTACACGTGGGTGA | -0.09
95 | CAGTTCACGTGTCGGG | 0.2
96 | CATTTCACGTGTTTGT | 0.28
97 | CGGAGCACGTGTAGGT | 0.03
98 | TTTAACACGTGCTTAT | -0.07
99 | TTAAACACGTGGGATT | -0.18
100 | TGCTACACGTGGTTTA | 0.07
101 | GTTAGCACGTGGGTCC | -0.12
102 | GTATCCACGTGGTGTG | 0.04
103 | GGTACCACGTGGGGTC | -0.19
104 | ACAGTCACGTGTGGGC | 0.07
105 | TGATGCACGTGAGCTT | 0.17
106 | TCGTACACGTGTTTTA | 0.13
107 | GTGGGCACGTGGGTTT | -0.11
108 | GATATCACGTGATAAG | 0.42
109 | AGCGTCACGTGTAGGA | -0.05
110 | TATGGCACGTGAGACG | 0.07
111 | GTAAGCACGTGTATGG | 0.06
112 | GTTAGCACGTGGGTAG | -0.11
113 | GGCGACACGTGAGGGC | 0.29
114 | CGAATCACGTGGGGGC | 0.05
115 | TTCTTCACGTGTTGTC | 0.29
